The target of this assay is T1, human full length TWEAK (human, UniProt O43508 1-249).
T1 construct: whole, on cells; CV-1 cells transfected with full length TWEAK were mixed 1:30 with Raji cells; also called TWEAK ligand
T1 sequence (looked up): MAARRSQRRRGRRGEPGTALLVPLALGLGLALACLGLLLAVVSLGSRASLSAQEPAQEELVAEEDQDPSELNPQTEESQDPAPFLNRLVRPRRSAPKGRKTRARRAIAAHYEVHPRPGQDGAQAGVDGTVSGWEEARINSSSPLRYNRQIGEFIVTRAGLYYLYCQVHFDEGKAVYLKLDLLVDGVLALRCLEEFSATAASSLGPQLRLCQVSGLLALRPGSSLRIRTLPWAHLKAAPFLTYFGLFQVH
The assay is described as follows: Scatchard analysis, 125-I labeled TWEAKR-Fc on CV-1 cells transfected with full length TWEAK, 4 degrees C. The protocol: The cells were incubated with serial dilutions of 125-I labeled human TWEAK receptor-Fc for 2 hours at 4 degrees Celsius. Free and bound probe was separated by microfuging the samples through a phalate oil mixture in plastic tubes. Supernatants and pellets were gamma-counted.

B1: TWEAKR-Fc (Fc fusion)
chain: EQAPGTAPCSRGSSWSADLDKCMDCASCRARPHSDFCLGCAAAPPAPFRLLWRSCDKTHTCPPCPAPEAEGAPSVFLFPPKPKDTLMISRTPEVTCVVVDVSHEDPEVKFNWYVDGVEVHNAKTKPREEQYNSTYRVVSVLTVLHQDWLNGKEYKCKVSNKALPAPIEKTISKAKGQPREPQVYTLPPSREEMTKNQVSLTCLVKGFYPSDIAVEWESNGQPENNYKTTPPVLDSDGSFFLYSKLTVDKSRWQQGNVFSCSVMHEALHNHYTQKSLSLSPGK
notes: In the Scatchard analysis the protein was 125-I labeled; also called huTWEAKR:Fc; human TWEAK receptor-Fc
In the case of B1, the Ka is about 4.5e+08 M⁻¹.

The record behind these values is US20050054047A1 (Amgen, published 2005).
